From article PMC4336329 (PLoS ONE, 2015)
The whole screen tested about 310,000 compounds, of which about 14,000 (4.5%) showed an effect of 50% or more. Effects have a minus sign here. This is one part of the list.

target: human ether-à-go-go-related gene (hERG) potassium channel (human, UniProt Q12809); assay: primary screen, population patch clamp on CHO cells stably expressing hERG
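Also: peak tail current of the secondary pulse compared with the same well before compound.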

Chain of human ether-à-go-go-related gene (hERG) potassium channel (Q12809 whole entry, looked up): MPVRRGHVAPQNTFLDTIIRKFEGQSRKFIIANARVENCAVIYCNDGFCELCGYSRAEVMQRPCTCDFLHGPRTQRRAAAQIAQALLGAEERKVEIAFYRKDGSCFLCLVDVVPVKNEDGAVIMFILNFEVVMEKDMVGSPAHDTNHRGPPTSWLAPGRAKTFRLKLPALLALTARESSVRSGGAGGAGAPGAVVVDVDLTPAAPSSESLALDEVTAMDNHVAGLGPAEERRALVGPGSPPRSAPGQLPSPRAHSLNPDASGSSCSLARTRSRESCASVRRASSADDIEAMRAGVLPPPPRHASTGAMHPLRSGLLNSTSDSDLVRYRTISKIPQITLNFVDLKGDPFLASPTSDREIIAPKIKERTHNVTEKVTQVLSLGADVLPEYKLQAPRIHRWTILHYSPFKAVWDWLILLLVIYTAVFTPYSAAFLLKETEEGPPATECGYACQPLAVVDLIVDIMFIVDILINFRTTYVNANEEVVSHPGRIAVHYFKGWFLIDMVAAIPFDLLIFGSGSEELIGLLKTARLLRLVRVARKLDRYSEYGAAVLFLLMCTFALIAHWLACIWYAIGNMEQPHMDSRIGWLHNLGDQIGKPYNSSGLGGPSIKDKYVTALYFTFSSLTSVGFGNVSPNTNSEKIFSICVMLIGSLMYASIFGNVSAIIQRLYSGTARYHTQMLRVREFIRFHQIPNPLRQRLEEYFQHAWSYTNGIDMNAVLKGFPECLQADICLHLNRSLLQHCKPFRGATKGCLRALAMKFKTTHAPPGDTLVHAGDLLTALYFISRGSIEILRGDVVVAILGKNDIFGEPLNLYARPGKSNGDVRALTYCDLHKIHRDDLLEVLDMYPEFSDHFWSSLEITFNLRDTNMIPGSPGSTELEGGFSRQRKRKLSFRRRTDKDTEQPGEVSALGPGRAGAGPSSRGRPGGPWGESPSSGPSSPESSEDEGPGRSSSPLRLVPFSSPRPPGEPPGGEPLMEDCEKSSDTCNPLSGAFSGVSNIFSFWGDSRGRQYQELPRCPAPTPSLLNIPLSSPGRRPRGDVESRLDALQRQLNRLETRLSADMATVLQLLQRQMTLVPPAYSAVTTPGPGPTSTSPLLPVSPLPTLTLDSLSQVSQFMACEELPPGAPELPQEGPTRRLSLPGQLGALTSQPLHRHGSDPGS

Row | SMILES | hERG current change (%, negative = inhibition) at 10uM [%]
1 | COC(=O)c1cc(-c2cccc(OC)c2)c2c(=O)[nH]c(=O)n(C)c2n1 | 13
2 | CSc1nc(N)nc(SCC(=O)OC(C)C)c1C#N | -10.5
3 | Cc1cc(=O)c2cc(Br)ccc2n1CC(=O)NCc1ccccc1 | -12.8
4 | Cc1cccc(-n2ncc3c(NCc4cccs4)ncnc32)c1 | 4.07
5 | Cn1c(CCNC(=O)c2ccc(Cl)c(Cl)c2)nnc1SCc1ccc(Cl)c(Cl)c1 | 8.82
6 | Cc1ccccc1NC(=O)c1ccc(N/N=C/c2ccccc2O)c([N+](=O)[O-])c1 | 9.72
7 | CCOc1ccc(Br)cc1-c1noc(-c2cccs2)n1 | 4.31
8 | CC(C)c1ccc(NC2CCCN(C(=O)c3ccc(N4CCOCC4)cc3)C2)cc1 (stereo not shown) | -13
9 | CCc1ccc(N2CC(C(=O)NCc3ccco3)CC2=O)cc1 (stereo not shown) | -2.58
10 | CCn1c(SCC(=O)Nc2ccc3c(c2)c2ccccc2n3CC)nnc1-c1cnccn1 | -14.5
11 | O=C(CSc1nnc(-c2cccnc2)n1-c1ccccc1)Nc1ccccn1 | -41
12 | Cc1cc(N)nc2nc(C(F)(F)F)nn12 | 9.99
13 | CN1CCN(NC(=O)C2CC2)CC1 | -0.439
14 | Nc1c([N+](=O)[O-])cc(F)c(N2CCNCC2)c1Br | -9.57
15 | COc1ccc(-n2c(NCCN(C)C)nc3sc4c(c3c2=O)CCCCC4)cc1 | -72.7
16 | COc1cc2c(C(=O)O)c(C)n(-c3ccccc3)c2c2ccccc12 | 6.21
17 | COc1cc(NC(=O)c2cccnc2SC)cc(OC)c1 | 10.2
18 | Cc1ccc(S(=O)(=O)NCC(c2ccco2)S(=O)(=O)c2ccccc2)cc1 (stereo not shown) | -18.4
19 | CCOc1cc(C2C(C(=O)N3CCCCC3)=C(C)NC3=C2C(=O)CCC3)cc(Br)c1O (stereo not shown) | 0.0163
20 | CC(C)NC(=O)COc1ccc(S(=O)(=O)N(C)Cc2ccccc2)cc1 | -40.7

Row | SMILES | hERG current change (%, negative = inhibition) at 10uM [%]
21 | Cc1ccc(Cn2c(SCC(=O)NCc3ccco3)nc3ccsc3c2=O)cc1 | -31.9
22 | COc1ccc(-c2ccc(-c3noc(C)n3)c(OC)n2)cc1 | 6.31
23 | Cc1[nH]c2c(C)cccc2c1CCNC(=O)C1CCCCC1C(=O)OCC(F)(F)F (stereo not shown) | -7.82
24 | COS(=O)(=O)[O-].Cn1c(-c2ccccc2)c[n+]2c1-c1ccccc1C2 | -1.85
25 | CC(NC(=O)c1ccco1)C(=O)N1CCc2ccccc2C1 (stereo not shown) | 12.2
26 | COC(=O)c1ccc(/C=C2/SC(=S)N(CCC(=O)NCCCN3CCOCC3)C2=O)cc1 | 7.24
27 | CCOC(=O)c1cc(-c2ccccc2C)n(CC2CC(c3cccc([N+](=O)[O-])c3)=NO2)n1 (stereo not shown) | 0.113
28 | COc1cc([N+](=O)[O-])ccc1N1C(=O)C2C3C=CC(C4CC34)C2C1=O (stereo not shown) | -28.3
29 | CCCOc1ccc(/C=N/Nc2ccccn2)cc1OC | 13.1
30 | CSc1nc(N)c2c(C)c(C)sc2n1 | 11.5
31 | c1ccc(-c2nnc(-c3ccccn3)nn2)nc1 | -6.12
32 | CC1=NNC(=O)C1CCC(=O)N/N=C/c1ccco1 (stereo not shown) | 2
33 | CCOc1ccc2nc(NC(=S)NCc3ccccc3)sc2c1 | 12.5
34 | Cc1ccccc1NCN1C(=O)C2C3C=CC(C3)C2C1=O (stereo not shown) | 6.34
35 | Cc1ccc(C2CC(c3ccccc3)=NN2c2ccccc2)o1 (stereo not shown) | 4.42
36 | CCn1cc([N+](=O)[O-])c(C(=O)NCc2ccc3c(c2)OCO3)n1 | 5.03
37 | CC(C)CC(=O)NNC(=O)C(C)C | 21.7
38 | CCCCn1c(O)c(C=NC2CC3CCC2(C)C3(C)C)c(=O)[nH]c1=O (stereo not shown) | 0.0769
39 | CCOc1ccc2[nH]cc(C(=O)NCc3ccccc3)c(=O)c2c1 | 15.7
40 | CCOCCCNC(=O)CN1C(=O)CSc2ccc(S(=O)(=O)N3CCOCC3)cc21 | 24.7

Row | SMILES | hERG current change (%, negative = inhibition) at 10uM [%]
41 | CCC(=O)Nc1cccc2ccccc12 | 16.4
42 | Cc1cc(C)nc(SC2CCCCC2O)n1 (stereo not shown) | 7.29
43 | COc1ccc(NC(=O)C(=O)N/N=C(\C)CC(=O)Nc2ccccn2)c(OC)c1 | -19.3
44 | CCOC(=O)N1CCN(C(=O)C2CC(=O)N(Cc3ccc(OC)cc3)C2)CC1 (stereo not shown) | 3.44
45 | CN(Cc1nc(-c2cccnc2)no1)S(=O)(=O)c1ccc(Br)cc1 | -46
46 | Cc1cccc(C(C)C)c1NC(=O)COC(=O)C1CC(=O)N(Cc2ccccc2)C1 (stereo not shown) | 0.7
47 | COc1cc(/C=C(\C#N)c2nc3c(s2)CCCC3)ccc1O | 9.3
48 | COCC1CCCCN1C(=O)c1ccc2nc(Cc3ccc(OC)c(OC)c3)oc2c1 (stereo not shown) | 6.77
49 | CSCCC(NC(=O)CCNC(=O)c1ccccc1Cl)c1nc2ccccc2[nH]1 (stereo not shown) | -3.89
50 | COc1ccc(CCC(=O)Nc2cccc(S(=O)(=O)N3CCCC3)c2)cc1OC | -13.4
51 | CC(=O)Nc1cccc(-n2c(=O)n(Cc3ccccc3)c(=O)c3[nH]cnc32)c1 | 7.98
52 | COc1ccc(NC(=S)N(CCCN2CCOCC2)Cc2cn(C)c3ccccc23)cc1 | -16.8
53 | CCOC(=O)c1c(N2C(=O)C3C4C=CC(O4)C3C2=O)sc2c1CCCC2 (stereo not shown) | -2.04
54 | Cc1cccc(-n2c(O)c(C=NC3CCS(=O)(=O)C3)c3ccccc3c2=O)c1C (stereo not shown) | -54.1
55 | Cc1c(C)c2ccc(OS(C)(=O)=O)cc2oc1=O | -58.4
56 | O=C(NCC(=O)N(Cc1cccs1)C(C(=O)NC1CCCC1)c1ccncc1)c1ccco1 (stereo not shown) | -7.43
57 | CN(C)C(CNC(=O)CCCc1c[nH]c2ccccc12)c1ccco1 (stereo not shown) | -13.7
58 | O=C(O)CCSC1CC(=O)N(c2ccccc2)C1=O (stereo not shown) | 12.8
